Common to all, as to test: Viability of human cancer cell lines after 72 h of drug (GDSC screen)
Compound in one assay: N#CC(c1ccnc(NCCc2cccnc2)n1)c1nc2ccccc2s1 [AS601245]
To be noted: top dose 8 µM; top dose inferred. The protocol: (§1)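 Human cancer cell lines in 384-well plates, medium with 10% serum, drug for 72 h over a 256-fold dose range (nine 2-fold or five 4-fold steps up to the top dose). Adherent lines were fixed and stained with the nucleic acid dye Syto60, suspension lines read with resazurin; signal relative to control wells, capped at 0 and 100%. One two-parameter sigmoid per drug and line, fitted in a mixed model over all curves with the slope shared within a line.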

Compound in a further assay: Cn1cnc2c(F)c(Nc3ccc(Br)cc3Cl)c(C(=O)NOCCO)cc21 [AZD6244]
To be noted: top dose 4 µM; screen: GDSC drug entry 1498; top dose inferred. Here is the method:
as §1

Compound in the next assay: Cc1ccc(NC(=O)c2cccc(C(C)(C)C#N)c2)cc1Nc1ccc2ncn(C)c(=O)c2c1 [AZ628]
To be noted: top dose 4 µM; top dose inferred. Here is the method:
as §1

Compound in the next assay: Nc1ccc(C(=O)Nc2cccc(-c3nc(N4CCOCC4)c4oc5ncccc5c4n3)c2)cn1 [YM201636]
To be noted: top dose 5.12 µM; top dose inferred. The protocol:
as §1

Compound in a further assay: NC(=O)C1CCCc2c1[nH]c1ccc(Cl)cc21 [EX-527]
To be noted: top dose 20 µM. The protocol:
as §1

By IC50 is meant the dose at which the fit gives 50% viability; a limit (>, <) means that the fit lies beyond the doses tested. AUC is the area under the same curve over the 256-fold range up to the top dose, as a fraction; the more sensitive the line, the further below 1. For part of these data: A top dose marked as inferred comes from the curve model; the source does not state it. For part of these data: Drugs with an entry number were screened twice under separate entries, and the two screens often disagree.

Turning to JVM-3 (lymphoid neoplasm, suspension), the AUC was 0.966 with AS601245; 0.939 with AZD6244; 0.987 with AZ628; 0.94 with YM201636; 0.985 with EX-527. The IC50 with AS601245 was over 8 µM; with AZD6244, over 4 µM; in the assay with AZ628 it was over 4 µM; with YM201636 it was over 5.12 µM; with EX-527 it was over 20 µM.
As to “JiyoyeP-2003 (Burkitt lymphoma, suspension)”, the AUC came to 0.903 with AS601245; 0.99 with AZD6244; 0.924 with AZ628; 0.923 with YM201636; 0.991 in the assay with EX-527. Further, the IC50 in the assay with AS601245 was over 8 µM; with AZD6244, over 4 µM; in the assay with AZ628, over 4 µM; with YM201636, over 5.12 µM; in the assay with EX-527, over 20 µM.
In the case of K5 (thyroid, adherent), the AUC with AS601245 worked out at 0.878; in the assay with AZD6244, 0.244; in the assay with AZ628 it was 0.396; with YM201636 it was 0.907; in the assay with EX-527, 0.975. The IC50 with AS601245 is 7.52 µM; with AZD6244, 0.0475 µM; in the assay with AZ628 it was 0.131 µM; with YM201636, over 5.12 µM; with EX-527 it was over 20 µM.
In the case of KALS-1 (glioma, adherent), the AUC turned out to be 0.914 with AS601245; 0.817 with AZD6244; 0.912 in the assay with AZ628; 0.922 with YM201636; 0.974 with EX-527. For the same cell line, the IC50 with AS601245 is over 8 µM; with AZD6244, 3.38 µM; in the assay with AZ628 it was over 4 µM; with YM201636, over 5.12 µM; with EX-527 it was over 20 µM.
As for “KARPAS-45 (lymphoblastic leukaemia, suspension)”, the AUC was 0.856 with AS601245; 0.991 with AZD6244; 0.935 with AZ628; 0.826 with YM201636; 0.983 with EX-527. In addition, the IC50 in the assay with AS601245 is 4.81 µM; with AZD6244, over 4 µM; in the assay with AZ628 it was over 4 µM; with YM201636 it was 2.43 µM; in the assay with EX-527, over 20 µM.
For the cell line “KARPAS-299 (anaplastic large cell lymphoma, suspension)”, the AUC stood at 0.942 in the assay with AS601245; 0.975 in the assay with AZD6244; 0.99 with AZ628; 0.844 with YM201636; 0.976 with EX-527. Besides, the half-inhibitory concentration (IC50) with AS601245 was over 8 µM; with AZD6244, over 4 µM; with AZ628 it was over 4 µM; with YM201636, 2.78 µM; in the assay with EX-527 it was over 20 µM.
As for “KARPAS-422 (B-cell lymphoma, suspension)”, the AUC worked out at 0.87 with AS601245; 0.958 with AZD6244; 0.94 with AZ628; 0.904 with YM201636; 0.978 in the assay with EX-527. The IC50 was 7.31 µM in the assay with AS601245; over 4 µM with AZD6244; over 4 µM with AZ628; over 5.12 µM with YM201636; over 20 µM in the assay with EX-527.
For the cell line “KCL-22 (chronic myeloid leukaemia, suspension)”, the AUC is 0.859 with AS601245; 0.909 with AZD6244; 0.647 with AZ628; 0.93 in the assay with YM201636; 0.983 with EX-527. The IC50 was 4.99 µM in the assay with AS601245; over 4 µM with AZD6244; 0.592 µM in the assay with AZ628; over 5.12 µM with YM201636; over 20 µM with EX-527.
On to “KE-37 (lymphoblastic leukaemia, suspension)”, for which the AUC worked out at 0.848 in the assay with AS601245; 0.994 with AZD6244; 0.914 with AZ628; 0.838 with YM201636; 0.992 with EX-527. Further, the IC50 in the assay with AS601245 is 3.94 µM; with AZD6244 it was over 4 µM; in the assay with AZ628, 3.36 µM; in the assay with YM201636, 2.35 µM; with EX-527, over 20 µM.
Turning to KELLY (neuroblastoma, adherent), the AUC with AS601245 is 0.934; with AZD6244, 0.955; in the assay with AZ628, 0.946; in the assay with YM201636 it was 0.783; with EX-527 it was 0.988. Besides, the IC50 was over 8 µM with AS601245; over 4 µM with AZD6244; over 4 µM with AZ628; 1.96 µM with YM201636; over 20 µM with EX-527.
Regarding “KG-1 (acute myeloid leukaemia, suspension)”, the AUC was determined as 0.925 with AS601245; 0.805 with AZD6244; 0.856 in the assay with AZ628; 0.818 with YM201636; 0.985 with EX-527. Moreover, the half-inhibitory concentration (IC50) with AS601245 is over 8 µM; in the assay with AZD6244, 1.77 µM; in the assay with AZ628, 2.7 µM; with YM201636 it was 2.49 µM; with EX-527, over 20 µM.
For the cell line KGN (ovary, adherent), the AUC with AS601245 was 0.766; in the assay with AZD6244, 0.902; in the assay with AZ628, 0.79; in the assay with YM201636 it was 0.802; in the assay with EX-527, 0.97. Also, the IC50 with AS601245 was 3.56 µM; with AZD6244 it was over 4 µM; in the assay with AZ628 it was 2.22 µM; in the assay with YM201636, 3.16 µM; with EX-527, over 20 µM.

Values taken from the supplement of paper PMC4967469.
